Consider 64 compounds from article PMC6919601, “Identification of Plasmodium dipeptidyl aminopeptidase allosteric inhibitors by high throughput screening” (PLoS ONE, 2019).

Molecules are shown by their SMILES. The campaign covered roughly 110,000 compounds. About 230 (0.21%) showed an effect of 50% or more. This is one part of the list.
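Also: 30 min substrate incubation versus DMSO and 10 µM JCP410 controls.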

Sequence of DPAP1 (Q8IIJ9 whole entry, looked up): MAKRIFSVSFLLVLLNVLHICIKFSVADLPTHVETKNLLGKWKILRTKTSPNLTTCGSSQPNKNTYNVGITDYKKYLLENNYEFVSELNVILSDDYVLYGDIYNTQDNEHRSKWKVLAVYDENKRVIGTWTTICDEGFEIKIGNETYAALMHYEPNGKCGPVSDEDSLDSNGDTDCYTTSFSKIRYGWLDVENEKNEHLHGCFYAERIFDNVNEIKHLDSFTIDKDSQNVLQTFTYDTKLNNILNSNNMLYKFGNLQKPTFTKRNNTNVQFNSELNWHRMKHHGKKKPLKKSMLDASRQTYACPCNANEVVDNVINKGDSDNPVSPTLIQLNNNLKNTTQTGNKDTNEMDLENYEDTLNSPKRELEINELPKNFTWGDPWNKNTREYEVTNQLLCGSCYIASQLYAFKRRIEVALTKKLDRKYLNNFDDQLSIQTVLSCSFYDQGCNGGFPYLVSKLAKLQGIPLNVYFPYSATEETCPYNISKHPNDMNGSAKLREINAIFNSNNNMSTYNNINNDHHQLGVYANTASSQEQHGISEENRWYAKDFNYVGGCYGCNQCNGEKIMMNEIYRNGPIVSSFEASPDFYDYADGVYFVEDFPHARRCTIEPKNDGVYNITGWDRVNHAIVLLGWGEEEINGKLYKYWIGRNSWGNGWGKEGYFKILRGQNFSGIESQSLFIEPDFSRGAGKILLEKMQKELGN

This test addresses DPAP1 (Plasmodium falciparum, UniProt Q8IIJ9). Nature of the test: primary screen, percent inhibition; read by cleavage of a fluorogenic dipeptide substrate; higher = more effect of the substance. The arrangement: species or system P. falciparum D10 trophozoite lysates; single well.
Consider `Cc1ccc(C(=O)Nc2ccc(S(=O)(=O)N3CCCC3)cc2)cc1Br`, for which the “% Inhibition @ 10 uM” value is listed as 1.94%.
As for `COc1cc2c(cc1OC)C(Nc1ccc(F)c(F)c1)=NC(C)(C)C2`, the “% Inhibition @ 10 uM” value is -6.37%.
In the case of `NCC1COc2ccccc2O1` (stereo not shown), the “% Inhibition @ 10 uM” value is recorded as -1.96%.
The same measure for `Cc1cc(C)c2nc(N3CCCC(C(=O)N4CCC(C(N)=O)CC4)C3)sc2c1` (stereo not shown): 7.91%; for `CC1CCCN(CC(O)COc2ccc(Cl)cc2)C1` (stereo not shown): 5.31%; for `Cc1nn2c(-c3ccccc3)c(S(=O)(=O)c3ccccc3)cnc2c1Br`: 1.64%.
With `CCc1ccccc1NC1=C(Cl)C(=O)N(c2ccc(OC)cc2)C1=O`, the “% Inhibition @ 10 uM” value is reported as 1.36%.
Consider `CC(C(=O)NCCCc1ccccc1)n1cccc1C(=O)c1ccccc1` (stereo not shown), for which the “% Inhibition @ 10 uM” value was -5.89%.
Take `Cc1ccc(C(=O)CC(C(=O)O)c2cn(CCC#N)c3ccccc23)cc1` (stereo not shown): the “% Inhibition @ 10 uM” value is reported as 3.63%.
For the compound `NS(=O)(=O)c1ccc(NC(=O)C(c2ccccc2)c2ccccc2)cc1`, the “% Inhibition @ 10 uM” value was 0.0974%.
The same measure for `CC(=O)Nc1nc2nc(C)cc(C)n2n1`: -9.18%; for `CNCC(=O)c1c[nH]c2ccccc12`: -3.13%.
With `CCOc1ccc(C(=O)NCCc2ccc(OC)c(OC)c2)cc1`, the “% Inhibition @ 10 uM” value is listed as -4.72%.
As for `CC(=O)CC(=O)Nc1ccccc1F`, the “% Inhibition @ 10 uM” value is on record as -1.92%.
On to `CC1=C(C(=O)Nc2ccc(F)cc2F)C(c2cccc(Br)c2)C2=C(O)CCCC2=N1` (stereo not shown), for which the “% Inhibition @ 10 uM” value is -7.3%.
For the compound `CCOC(=O)C1=C(C)OC2(O)c3ccccc3C(=O)C12O` (stereo not shown), the “% Inhibition @ 10 uM” value is 1.66%.
Turning to `COc1cc(OC)c(-n2nnc(-c3nsc(NC(=O)c4ccccc4)n3)c2C)cc1Cl`, the “% Inhibition @ 10 uM” value turned out to be 0.351%.
`CCc1ccccc1NC(=O)CN(c1ccc(Cl)cc1)S(C)(=O)=O`: the “% Inhibition @ 10 uM” value was -2.44%.
The figure for `COc1ccc(/C=C/C(=O)NC(=S)Nc2ccc(S(N)(=O)=O)cc2)cc1OC` is 3.7%; for `CCC(=O)Nc1ccc(S(=O)(=O)Nc2cc(C)on2)cc1` it is 0.983%.
Take `CCCCN(C)C(=O)Cn1cnc2onc(-c3ccc(F)cc3)c2c1=O`: the “% Inhibition @ 10 uM” value was 4.23%.
The same measure for `CC(C)C[C@H](NC(c1ccc(Br)cc1)c1nccs1)C(=O)NC1(C#N)CC1` (stereo partly shown): 4.45%.
The same measure for `CC(=O)c1ccc(NC(=O)COc2ccc(Br)cc2C)cc1`: -4.02%; for `CCCCNC(=O)c1ccc2c(c1)ncn2C1CCCC1`: 2.05%; for `O=C(NC1CCCCC1)c1cccc(S(=O)(=O)N2CC(c3ccccc3)CC2=O)c1` (stereo not shown): -0.834%.
Take `c1ccc2c(NCc3ccncc3)cccc2c1`: the “% Inhibition @ 10 uM” value was 3.96%.
Regarding `CCCOc1ccc(C(=O)N2CCN(Cc3ccc4c(c3)OCO4)CC2)cc1`, the “% Inhibition @ 10 uM” value is 0.231%.
For `COCCN1Cc2cccc(C(=O)Nc3cccnc3)c2C1=O`, the “% Inhibition @ 10 uM” value is given as -6.62%.
With `CC(C)CC(NC(=O)/C=C/c1c[nH]cn1)C(=O)NCC#N` (stereo not shown), the “% Inhibition @ 10 uM” value came out at 0.744%.
The figure for `CN(C)c1ccc(C(=O)C(O)c2ccc(C(C)(C)C)cc2)cc1` (stereo not shown) is -5.44%; for `C/C(=C(\NC(=O)c1ccccc1)C(=O)O)c1ccccc1` it is -0.48%; for `Cc1nc2ccccc2c2oc(C(=O)NCCCN3CCC(Cc4ccccc4)CC3)cc12` it is 2.85%.
The figure for `O=C(Cn1nc(-c2ccc(Cl)cc2)ccc1=O)NCCCN1CCN(Cc2ccccc2)CC1` is 3.24%; for `CN1CCN(C(=O)c2ccc(CS(=O)Cc3ccc(Cl)cc3)o2)CC1` (stereo not shown) it is -5.43%; for `CN(Cc1ccccc1)C(=O)C1CCCN(Cc2ccc(Cl)cc2)C1` (stereo not shown) it is -9.48%.
`Cc1cc(-c2ccco2)c(C#N)c(N)n1`: the “% Inhibition @ 10 uM” value is recorded as 1.38%.
On to `CN(Cc1ccco1)S(=O)(=O)c1ccc(-c2ccc(O)nn2)s1`, for which the “% Inhibition @ 10 uM” value is -0.171%.
As to `NC(c1ccccc1)c1c(O)ccc2ccccc12` (stereo not shown), the “% Inhibition @ 10 uM” value is -3.92%.
With `O=C1C2CC=CCC2C(=O)N1c1cccc(O)c1` (stereo not shown), the “% Inhibition @ 10 uM” value came to 0.993%.
Regarding `CCCCNc1nc(Oc2ccc(OCCC)nn2)nc(N2CCOCC2)n1`, the “% Inhibition @ 10 uM” value is 1.46%.
As for `Cc1n[nH]c(C)c1S(=O)(=O)N1CCCC(C(=O)NCc2ccc(F)cc2)C1` (stereo not shown), the “% Inhibition @ 10 uM” value was -1.03%.
`CC(C)(Oc1ccc(Cl)cc1)C(=O)N1CCN(Cc2ccc3c(c2)OCO3)CC1`: the “% Inhibition @ 10 uM” value was 5.44%.
The figure for `Cn1cnnc1Sc1nc2c(c(=O)n(C)c(=O)n2C)n1Cc1ccc(F)cc1` is 3.25%.
As to `Cc1cccc(-n2c(N)cc(=O)nc2SCC(=O)Nc2cccc(C(F)(F)F)c2)c1`, the “% Inhibition @ 10 uM” value was determined as 3.56%.
Consider `CCOc1ccc(NC(=O)C2=C(C)NC(=O)NC2c2ccc(O)c(OC)c2)cc1` (stereo not shown), for which the “% Inhibition @ 10 uM” value was -2.05%.
The same measure for `CN(C)S(=O)(=O)c1ccc2c(c1)nc1n2CCC1`: -2.72%; for `CC(C)c1ccc(-c2c(N3CCOCC3)c(=O)c2=O)cc1`: -3.5%.
Regarding `Cc1ccc(CNC(=O)CSc2nc3ccccc3nc2N2CC(C)OC(C)C2)cc1` (stereo not shown), the “% Inhibition @ 10 uM” value is 1.72%.
With `Cc1ccc(NC(=O)CCNC(=O)Cn2ccc3ccccc3c2=O)nc1`, the “% Inhibition @ 10 uM” value is listed as -0.631%.
As to `CN(C)CCCNC(=O)c1nc(-c2ccc3c(c2)OCO3)no1`, the “% Inhibition @ 10 uM” value came out at 4.31%.
On to `CC(=O)N(C)c1ccc(NC(=O)COc2ccc3ccccc3c2Br)cc1`, for which the “% Inhibition @ 10 uM” value was determined as 0.746%.
Consider `CC(NCc1ccccc1)=C1C(=O)N(C)C(=O)N(C)C1=O`, for which the “% Inhibition @ 10 uM” value was -2.07%.
The figure for `CCOc1ccc2c(c1)C(C)=CC(C)(C)N2C(=O)CN1C(=O)c2ccccc2C1=O` is 5.14%; for `CC(C)CNC(=O)COCc1cc(-c2cccs2)on1` it is -6.13%.
The same measure for `COc1ccc2ncc(S(=O)(=O)c3ccccc3)c(N3CCOCC3)c2c1`: -4.86%.
As for `Cc1sc2nc(SCC(=O)N3CCCC3)n(-c3ccc(F)cc3)c(=O)c2c1C`, the “% Inhibition @ 10 uM” value was determined as 5.18%.
Take `O=C1C2C3C=CC(C3)C2C(=O)N1c1ccccc1[N+](=O)[O-]` (stereo not shown): the “% Inhibition @ 10 uM” value is listed as -6.09%.
`CCCc1nnc(N2C(=O)c3oc4ccc(F)cc4c(=O)c3C2c2ccc(OCC)c(OC)c2)s1` (stereo not shown): the “% Inhibition @ 10 uM” value was 0.0539%.
For the compound `COc1ccc(OC)c(/C=C2\N=C(c3ccccc3OC)OC2=O)c1`, the “% Inhibition @ 10 uM” value was found to be 5.63%.
With `Oc1cc(NCc2ccccc2)c(-c2ccccc2)nn1`, the “% Inhibition @ 10 uM” value turned out to be 1.88%.
`COc1ccc(C2SCC(=O)N2CCc2ccc(OC)c(OC)c2)c(OC)c1` (stereo not shown): the “% Inhibition @ 10 uM” value worked out at 2.94%.
Turning to `O=C(/C=C/c1ccccc1Cl)Nc1cccc(O)c1`, the “% Inhibition @ 10 uM” value is -2.12%.
Turning to `COc1ccc(C(=O)CSc2nsc(SCC(=O)c3ccc(OC)cc3)c2C#N)cc1`, the “% Inhibition @ 10 uM” value is given as 3.39%.
As for `COc1ccc(C(=O)NCc2nnc(SCC(=O)N3CCC(Cc4ccccc4)CC3)o2)cc1`, the “% Inhibition @ 10 uM” value is listed as 4.1%.
